Reference: PubChem BioAssay AID1477 (National Center for Advancing Translational Sciences (NCATS), 2009)
Among all 230,000 compounds or so, fewer than 10 were called active. Inconclusive results, whose numbers are uncertain, are shown with a selection of clear calls. Calls come from the whole dose curve; as a rule, active = well fitted curve in the direction sought with a large enough effect; inconclusive = small, poorly fitted or top-dose-only effect, or effect the other way, or another doubt; inactive = no such curve, though single readings can be large or run the other way. No potency is given beside an inconclusive call; the fits are too rough.

Biological target: Runt-related transcription factor 1 (Homo sapiens) + Core-binding factor subunit beta (Homo sapiens) (UniProt Q01196+Q13951)
UniProt Q01196, sequence (Q01196 whole entry, looked up): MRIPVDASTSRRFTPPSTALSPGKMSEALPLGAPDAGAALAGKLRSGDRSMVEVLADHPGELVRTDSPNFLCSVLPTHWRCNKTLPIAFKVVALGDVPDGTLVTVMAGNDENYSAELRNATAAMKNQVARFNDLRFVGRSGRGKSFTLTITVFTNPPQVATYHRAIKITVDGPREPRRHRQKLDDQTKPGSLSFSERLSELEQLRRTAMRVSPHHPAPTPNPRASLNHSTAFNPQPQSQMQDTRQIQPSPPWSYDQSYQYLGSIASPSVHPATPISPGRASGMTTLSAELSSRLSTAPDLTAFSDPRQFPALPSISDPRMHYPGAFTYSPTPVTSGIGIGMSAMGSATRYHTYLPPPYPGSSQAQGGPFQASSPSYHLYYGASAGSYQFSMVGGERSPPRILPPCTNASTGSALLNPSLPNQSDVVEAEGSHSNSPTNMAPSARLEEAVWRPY
UniProt Q01196, sequence (Q13951 whole entry, looked up): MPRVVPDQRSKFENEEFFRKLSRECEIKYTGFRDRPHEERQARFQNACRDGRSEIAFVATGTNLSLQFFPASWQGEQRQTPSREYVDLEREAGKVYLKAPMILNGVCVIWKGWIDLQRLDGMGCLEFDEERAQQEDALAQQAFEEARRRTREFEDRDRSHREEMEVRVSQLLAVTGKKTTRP
Test: qHTS Assay for Compounds Blocking the Interaction Between CBF-beta and RUNX1 for the Treatment of Acute Myeloid Leukemia; for activity, negative = inhibition: % of control where 0% means no effect
Conditions: AlphaScreen CBFb-His/RUNX1-biotin binding, biochemical; activity, negative = inhibition: at 59.8 µM (top of the series) unless noted
In short: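 AlphaScreen proximity signal reports loss of binding between His-tagged CBF-beta and biotin-labelled RUNX1, each at 30 nM. Proteins are pre-associated for 20 minutes, compounds added for 15 minutes, then beads for 90 minutes, all at ambient temperature.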

SMILES | activity, negative = inhibition | Potency
CCOC(=O)c1ccc2c(c1)C(=O)N(C1CCCCC1)C2=O | inactive: 4.35% | 
COC(C[C@@H](O)[C@@H](C)[C@H](O)COCc1ccccc1)OC | inactive: 15.8% | 
Cc1ccc(-n2c(N)c(S(=O)(=O)c3ccccc3)c3nc4ccccc4nc32)cc1 | inactive: 1.56% | 
N#Cc1ccccc1CN1C(=O)S/C(=C/c2cccn2-c2cccc(C(=O)O)c2)C1=O |  | inconclusive [inhibitor, partial curve]
CCC(C)c1ccc2oc(-c3ccc(NC(=O)c4ncn[nH]4)cc3)nc2c1 (stereo not drawn) |  | inconclusive [activator, single point]
O=C(N/N=C/c1cccnc1)c1cc(-c2ccccc2OCc2ccccc2)n[nH]1 |  | inconclusive [activator, partial curve]
S=c1[nH]nc(-c2ccncc2)n1/N=C/c1cccc2ccccc12 | inactive: 12.2% | 
COCC(C)N=C1NN=C(c2cccs2)C(CC(=O)O)S1 (stereo not drawn) |  | inconclusive [inhibitor, single point]
O=c1c(-c2ccc(Cl)cc2)[n+]([O-])c2ccccc2n1O |  | inconclusive [inhibitor, single point]
Cc1oc(-c2cccc3ccccc23)nc1CN1CCN(c2ncnc3ccccc23)CC1 | inactive: 0.303% | 
CCCCn1c(NC(=S)Nc2ccccc2)nc2ccccc21 |  | inconclusive [inhibitor, single point]
O=C(O)CN1CCCCCC1=O | inactive: 4.16% | 
O=C(CSc1nnc(-c2cccnc2)s1)Nc1ccnc2ccccc12 |  | inconclusive [inhibitor, partial curve, poor fit]
COc1ccc(NC(C)C(=O)N/N=C/c2ccccc2OCc2cccc(Br)c2)cc1 (stereo not drawn) |  | inconclusive [inhibitor, single point]
O=C(O)c1ccccc1-c1c2cc(Br)c(=O)c(Br)c-2oc2c(Br)c(O)c(Br)cc12 |  | inconclusive [activator, single point]
O=C(O)c1cc(-c2ccc(/C=C3\NC(=O)N(c4ccc(Cl)cc4)C3=O)o2)ccc1Cl |  | inconclusive [inhibitor, single point]
Cc1ccc(C#N)c(SCc2ccccc2F)n1 |  | inconclusive [activator, partial curve]
Cc1noc(C)c1C(=O)N1CCC(C(=O)c2ccc(F)cc2F)CC1 | inactive: 3.69% | 
COc1cc(C(CCN2CCCCC2)c2c(OC)cc(OC)c3c2OC(=O)CC3c2ccc(N(C)C)cc2)cc(OC)c1OC (stereo not drawn) |  | inconclusive [inhibitor, single point]
Cc1nc2ccc(F)cc2cc1C(=O)Nc1ccc(Cl)c(Cl)c1 |  | inconclusive [activator, partial curve]
Cc1c(-c2ccc(O)cc2)nc2nc(-c3ccccc3)c(-c3ccccc3)nn12 |  | inconclusive [activator, partial curve]
CC1CN(c2oc(Cc3cccc4ccccc34)nc2C#N)CC(C)O1 (stereo not drawn) |  | inconclusive [inhibitor, partial curve]
O=C(/C=C/c1cccs1)NC(=S)NNC(=O)Cc1cccs1 |  | inconclusive [inhibitor, partial curve]
COc1ccc(NC(=O)CSc2nnc(-c3ccccn3)n2-c2ccccc2)cc1OC |  | inconclusive [inhibitor, single point]
CC(C)=C1C(=O)NN(c2ccc(C)c(Cl)c2)C1=O |  | inconclusive [inhibitor, partial curve, poor fit]

SMILES | activity, negative = inhibition | Potency
O=C1NC(=O)N(c2cccc(Cl)c2)C(=O)/C1=C\c1ccc(Sc2nc3ccccc3[nH]2)o1 |  | inconclusive [inhibitor, single point]
N#CC(C#N)=NNc1ccc(-n2ccc(C(F)(F)F)n2)cc1 |  | inconclusive [inhibitor, single point]
O=C(Nc1nnc(-c2ccco2)s1)c1ccccc1 | inactive: -1.21% | 
O=[N+]([O-])c1cccc(CNc2ccc3c(c2)CCC3)c1 |  | inconclusive [inhibitor, partial curve]
O=C1c2ccccc2C(=O)C1c1ccc(O)cc1 |  | inconclusive [activator, partial curve]
CCOc1ccc(/C(C)=N/NC(=O)Cn2nc([N+](=O)[O-])cc2C)cc1 | inactive: -6.66% | 
Cc1csc(N/N=C/c2ccccn2)n1 |  | inconclusive [inhibitor, single point]
Cc1ccccc1OCc1nc(-c2ccccc2)no1 |  | inconclusive [activator, single point]
CC(C)NC(=O)CN1C(=O)C(=O)c2ccccc21 | inactive: 13.7% | 
O=C1N=C(c2ccccc2)S/C1=C\c1cccs1 | inactive: -20.8% | 
CC(=O)N/N=C/c1c(C)[nH]n(-c2ccccc2)c1=O |  | inconclusive [inhibitor, single point]
CSc1ncc2c(n1)-c1cc(C)ccc1SC2 |  | inconclusive [activator, single point]
CC(=O)/C(=N/Nc1ccccc1Cl)Sc1nnc(C(O)c2ccccc2)n1-c1ccccc1 (stereo not drawn) | inactive: -8.83% | 
CC1C/C(=N/Nc2ccc([N+](=O)[O-])cc2[N+](=O)[O-])CC(C)(C)C1 (stereo not drawn) | inactive: 3.45% | 
Cc1ccc(Cl)c2c1NC(=O)C2(O)CC(=O)c1ccc(F)cc1 (stereo not drawn) | inactive: 4.18% | 
C(=N\NC1=NCCCCC1)/c1c[nH]c2ccccc12 | inactive: 8.35% | 
Cc1cccc(NNC(N)=S)c1C | inactive: -3.31% | 
O=C1ON=C(c2ccccc2)/C1=C/c1ccco1 |  | inconclusive [inhibitor, single point]
COc1ccc(C2CC(c3ccc(OC)cc3)n3nc(NS(C)(=O)=O)nc3N2)cc1 (stereo not drawn) | inactive: 6.52% | 
CC(NC(=O)OCc1ccccc1)C(=O)Oc1cc2oc(=O)cc(-c3ccccc3)c2cc1Cl (stereo not drawn) | inactive: 7.75% | 
CCOC(=O)c1c(N2C(=O)Nc3ccccc3N2O)n[nH]c1-c1cccc(OC)c1 |  | inconclusive [activator, partial curve]
O=C(CC1C(=O)NCCN1Cc1ccc(-c2ccccc2)cc1)NCC1CCOCC1 (stereo not drawn) | inactive: 1.5% | 
O=C(Cn1cnc2c(nnn2Cc2ccccc2)c1=O)c1ccccc1 | inactive: -3.98% | 
Cc1cc(=O)[nH]c(S)c1C#N |  | inconclusive [inhibitor, single point]
O=C(CN1CCOCC1)Nc1ccc(N2CCN(c3ccccc3)CC2)c(F)c1 |  | inconclusive [inhibitor, single point]

SMILES | activity, negative = inhibition | Potency
Clc1ccc(C2=NNC(=NCc3ccc4c(c3)OCO4)SC2)cc1 |  | inconclusive [inhibitor, partial curve]
CCc1nnc(NS(=O)(=O)c2ccc(NC(=S)NC(=O)/C=C/c3ccccc3)cc2)s1 |  | inconclusive [inhibitor, single point]
N#Cc1ccc(-c2ccc3c(c2)OCO3)nc1SCC(=O)OCc1ccccc1 |  | inconclusive [activator, partial curve]
C/C(=N\NC(=O)C(C)Oc1ccc([N+](=O)[O-])cc1)c1ccccn1 (stereo not drawn) |  | inconclusive [inhibitor, partial curve]
CC(C)(Sc1cc(C(C)(C)C)c(O)c(C(C)(C)C)c1)Sc1cc(C(C)(C)C)c(O)c(C(C)(C)C)c1 |  | inconclusive [activator, full curve, poor fit]
COC(=O)CCCC(=O)Nc1ccc(Cl)c(Cl)c1 | inactive: 0.169% | 
Cc1cccc(-c2ccc(C=Nc3c(C)n(C)n(-c4ccccc4)c3=O)o2)c1 |  | inconclusive [inhibitor, partial curve]
COc1ccc(S(=O)(=O)Oc2ccc3ccccc3c2)cc1 |  | inconclusive [activator, single point]
Cc1cc(Oc2nc3c(C)cccn3c(=O)c2/C=C(\C#N)S(=O)(=O)c2ccccc2)ccc1Cl |  | inconclusive [activator, single point]
CCCN1C(=O)/C(=C/c2ccco2)SC1=Nc1ccc(OC)cc1 |  | inconclusive [inhibitor, single point]
N#C/C(=C\c1ccc(O)c(O)c1)C(N)=S |  | inconclusive [inhibitor, partial curve]
COc1ccc2c(C)cc(SCc3c(C)noc3C)nc2c1 |  | inconclusive [activator, single point]
O=C(NCc1ccco1)/C(=C\c1ccco1)NC(=O)c1ccc(Br)o1 |  | inconclusive [inhibitor, single point]
O=C(NNC(=O)c1ccccc1Br)c1ccc(Cl)cc1 | inactive: -3.06% | 
NC(=O)CSc1nnc2ccc(-c3ccc(Cl)cc3)nn12 | inactive: 7.62% | 
S=C(N/N=C/c1ccc(Cl)cc1)N1CCOCC1 | inactive: -20.7% | 
C=CCC1(Cl)C(=O)C(Cl)=C(N2CCOCC2)C1(OC)OC (stereo not drawn) |  | inconclusive [activator, partial curve]
O=C(Nc1nnc(SCC(=O)N2CCCc3ccccc32)s1)c1cccc2ccccc12 |  | inconclusive [inhibitor, full curve, poor fit]
CC(C)NC(=O)c1ccc2c(=O)n(C3CCCC3)c(=S)[nH]c2c1 | inactive: -0.584% | 
COc1c(O)c(O)c2cc(OC)c3c(OC)cc(=O)c4c5c(=O)c(OC)c(C(C)=O)c6c5c(c1CC=6C)c2c34 |  | inconclusive [inhibitor, single point]
Cc1cc(C)nc(NC(=S)Nc2cccc(F)c2)c1 | inactive: 2.46% | 
Oc1ccc(Cl)c2cccnc12 | inactive: -3.68% | 
Cc1ccc(C(=O)N(Cc2ccc3c(c2)OCO3)Cc2nc3ccccc3c(=O)[nH]2)cc1 | inactive: -4.64% | 
